{"source": "PubChem BioAssay AID624417", "about": "(National Center for Advancing Translational Sciences (NCATS), 2012)", "note": "The campaign covered roughly 410,000 compounds. About 6,400 (1.6%) were called active. Inconclusive results, whose numbers are uncertain, are shown with a selection of clear calls. The call rests on the fitted dose curve; in most records, active means well fitted inhibition curve with a large enough effect; inconclusive means small, poorly fitted or top-dose-only effect; inactive means no such curve, though single readings can be large or run the other way. Potencies of inconclusive entries are left out as doubtful fits. On the % scale 0 is the no-effect control and ±100 the full control effect; potency means the concentration at half of the fitted maximal effect; tags describe the fitted curve by direction and shape."}
{"target": "Glucagon-like peptide 1 receptor (Homo sapiens) (UniProt P43220)", "sequence (P43220 whole entry, looked up)": "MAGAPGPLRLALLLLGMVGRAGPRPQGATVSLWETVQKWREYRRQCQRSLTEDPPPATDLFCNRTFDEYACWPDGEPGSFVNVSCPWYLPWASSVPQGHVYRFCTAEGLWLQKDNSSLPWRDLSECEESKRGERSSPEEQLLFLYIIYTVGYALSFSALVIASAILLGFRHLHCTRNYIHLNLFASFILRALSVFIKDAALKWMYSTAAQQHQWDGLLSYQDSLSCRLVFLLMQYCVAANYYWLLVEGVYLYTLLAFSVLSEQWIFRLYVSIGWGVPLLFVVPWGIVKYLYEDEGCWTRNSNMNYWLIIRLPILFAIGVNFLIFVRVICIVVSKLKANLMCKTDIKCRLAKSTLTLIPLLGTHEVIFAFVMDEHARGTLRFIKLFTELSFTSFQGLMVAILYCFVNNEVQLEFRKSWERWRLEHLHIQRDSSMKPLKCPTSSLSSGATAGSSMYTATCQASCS", "test": "qHTS of GLP-1 Receptor Inverse Agonists (Inhibition Mode); further: nearly all actives have a fitted effect of over 55% in size", "conditions": "HEK293 GLP-1R CRE-luciferase, luminescence, 24 h, GLP-1R form is constitutively active; activity change, negative = inhibition: at 38.3 µM (top of the series) unless noted", "procedure,_shortened": "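Assay principle: reduced luminescence from a cAMP-responsive reporter in HEK293 cells co-expressing a constitutively active GLP-1R. Conditions: 24 hr compound incubation, 37 deg C, 5% CO2.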"}
{"smiles": "CCCN(CCC)S(=O)(=O)c1cc(Br)cc2c1N(C(=O)CC)CC2", "Potency": "inconclusive [inhibitor, single point]"}
{"smiles": "CC1CCN(CCCNC(=O)c2ccc3c(=O)n(CCc4ccccc4)c(=O)[nH]c3c2)CC1", "activity change, negative = inhibition": "inactive: -7.12%"}
{"smiles": "COc1ccc(S(=O)(=O)NCCc2sc(-c3cccc(C)c3)nc2C)cc1", "activity change, negative = inhibition": "inactive: -22.8%"}
{"smiles": "CC(C)CN1CC(=O)N2C(c3ccccc3)c3[nH]c4ccccc4c3C[C@H]2C1=O", "note": "(some centres undefined)", "Potency": "active: 10 µM"}
{"smiles": "Cc1ccc(CCNC(=O)c2cccc(Nc3nc4ccccc4nc3-n3nc(C)cc3C)c2)cc1", "activity change, negative = inhibition": "inactive: 8.85%"}
{"smiles": "COc1cc(Br)ccc1C1C(C(=O)Nc2ccc(C)cc2C)=C(C)Nc2nnnn21", "note": "(centres undefined)", "Potency": "inconclusive [inhibitor, single point]"}
{"smiles": "COc1ccc(CCNc2nc3ccccc3c3nc(-c4cccc(C)c4)nn23)cc1OC", "activity change, negative = inhibition": "inactive: 0.813%"}
{"smiles": "Cc1ccccc1-c1nc(CN2CCC(C(=O)NCc3cccs3)CC2)c(C)o1", "Potency": "inconclusive [inhibitor, partial curve, poor fit]"}
{"smiles": "O=C(C1CCN(S(=O)(=O)c2cccc3nsnc23)CC1)N1CC=C(c2ccccc2)CC1", "Potency": "inconclusive [inhibitor, full curve]"}
{"smiles": "Cc1[nH]n2c(=O)cc(-c3ccc([N+](=O)[O-])cc3)nc2c1-c1ccccc1", "Potency": "inconclusive [inhibitor, partial curve, poor fit]"}
{"smiles": "Cc1nn(Cc2ccc(Cl)c(Cl)c2)c(C)c1NC(=O)c1cc(-c2ccco2)on1", "activity change, negative = inhibition": "inactive: -6.78%"}
{"smiles": "O=C(N/N=C/c1c[nH]c2ccccc12)c1[nH]c2ccc(Br)cc2c1-c1ccccc1", "Potency": "inconclusive [inhibitor, full curve, poor fit]"}
{"smiles": "Cc1ccc(NC(=O)CSCc2cnn(-c3ccccc3)c2-n2cccc2)c(Cl)c1", "Potency": "active: 10 µM"}
{"smiles": "O=S(=O)(Nc1ccc(-c2ccc(N3CCCC3)nn2)cc1)c1ccc(OC(F)(F)F)cc1", "Potency": "inconclusive [inhibitor, single point]"}
{"smiles": "CCCOc1ccc(Cc2c(Cl)nc(SC)nc2NC)cc1", "Potency": "inconclusive [inhibitor, partial curve, poor fit]"}
{"smiles": "O=C(NCc1ccccc1)C1C(c2ccc3c(c2)OCO3)=Nc2ccccc2N1C(=O)c1ccccc1", "note": "(centres undefined)", "Potency": "inconclusive [inhibitor, partial curve, poor fit]"}
{"smiles": "CSc1ccc(-c2nc3cnccn3c2Nc2ccc3c(c2)OCO3)cc1", "Potency": "inconclusive [inhibitor, single point]"}
{"smiles": "COc1cccc(NC(=O)C(c2ccccc2)N2CCN(c3ccccn3)CC2)c1", "note": "(centres undefined)", "Potency": "inconclusive [inhibitor, partial curve, poor fit]"}
{"smiles": "O=C(c1cccc(NS(=O)(=O)c2ccc(F)cc2)c1)N1CCN(c2ccccc2)CC1", "Potency": "inconclusive [inhibitor, single point]"}
{"smiles": "Cc1ccnc(NC(=O)c2sc3cc(Cl)ccc3c2Cl)c1", "activity change, negative = inhibition": "inactive: 23.6%"}
{"smiles": "FC(F)(F)c1cnc(N2CCC(=NOCc3ccc(Cl)cc3)CC2)c(Cl)c1", "Potency": "inconclusive [inhibitor, single point]"}
{"smiles": "Cc1ccc(C(=O)Nc2nc3c(s2)CCCC3)o1", "Potency": "inconclusive [inhibitor, single point]"}
{"smiles": "CCCCCOC(=O)c1[nH]c2c(c1C)C(=O)CC(c1ccco1)C2", "note": "(centres undefined)", "activity change, negative = inhibition": "inactive: -63.5%"}
{"smiles": "COc1cccc(CNc2ccc(N3CCC(C)CC3)cc2)c1OC", "activity change, negative = inhibition": "inactive: 2.96%"}
{"smiles": "S=c1[nH]nc(-c2ccncc2)n1/N=C/C=C/c1ccco1", "activity change, negative = inhibition": "inactive: 7.78%"}
{"smiles": "Cc1ccc2cc(CN(CCN(C)C)C(=S)Nc3ccccc3)c(=O)[nH]c2c1C", "Potency": "inconclusive [inhibitor, partial curve]"}
{"smiles": "CCN(CC)C(=O)[C@H]1C[C@H](CC(=O)NCC23CC4CC(CC(C4)C2)C3)C(=O)N2CCc3c([nH]c4ccc(Cl)cc34)[C@]12C", "Potency": "inconclusive [inhibitor, partial curve, poor fit]"}
{"smiles": "CC1CCCN(S(=O)(=O)c2cc(C(=O)NCc3ccccc3Cl)n(C)c2)C1", "note": "(centres undefined)", "Potency": "inconclusive [inhibitor, single point]"}
{"smiles": "CC(C)(C)C(=O)Nc1ccc(C(=O)N/N=C/c2ccccc2OC(=O)c2ccccc2)cc1", "Potency": "inconclusive [inhibitor, single point]"}
{"smiles": "CCOC(=O)c1[nH]c(C)c(C(=O)OCC(=O)NCc2ccc(OC)cc2)c1C", "activity change, negative = inhibition": "inactive: 6.47%"}
{"smiles": "COc1ccccc1NC(=S)NCCC(c1ccccc1)c1ccccc1", "Potency": "inconclusive [inhibitor, single point]"}
{"smiles": "C=Cc1ccc(Cn2c(C(=O)O)c(CNCc3ccccc3)c3ccc(OC)cc32)cc1", "Potency": "inconclusive [inhibitor, single point]"}
{"smiles": "Cc1ccc(C)c(OCCn2nnc3ccccc32)c1", "Potency": "inconclusive [inhibitor, single point]"}
{"smiles": "O=C(CNC(=O)c1cccc(Cl)c1)NCCCSc1ccccc1", "Potency": "inconclusive [inhibitor, single point]"}
{"smiles": "O=C(NCCCc1ccccc1)c1cccc(NC(=O)c2ccccc2)c1", "Potency": "inconclusive [inhibitor, partial curve, poor fit]"}
{"smiles": "Nc1nonc1-n1nnc(C(=O)N/N=C/c2cccnc2)c1CSc1ccc(Cl)cc1", "Potency": "inconclusive [inhibitor, partial curve, poor fit]"}
{"smiles": "Cc1cc2nc(C3CCCCC3)c(Cc3ccccc3)n2c(C)c1Br", "Potency": "inconclusive [inhibitor, partial curve, poor fit]"}
{"smiles": "Cc1ccc2nc(SCC(=O)Nc3ccc4c(c3)CCC4)[nH]c2c1", "Potency": "inconclusive [inhibitor, partial curve, poor fit]"}
{"smiles": "COC(=O)c1cccc(NC(=S)NCc2ccc(Cl)cc2)c1", "Potency": "inconclusive [inhibitor, partial curve, poor fit]"}
{"smiles": "CC(C)CCNC(=O)c1nn(C)c2c1CSc1ccccc1-2", "Potency": "inconclusive [inhibitor, partial curve, poor fit]"}
{"smiles": "C/C(=N\\Nc1ccc([N+](=O)[O-])cc1)c1ccc(O)cc1", "Potency": "inconclusive [inhibitor, single point]"}
{"smiles": "COc1ccc(CNC(=O)Nc2ccccc2)cc1", "Potency": "inconclusive [inhibitor, single point]"}
{"smiles": "COc1cccc(N2CCN(Cc3nnnn3C3CCCCC3)CC2)c1", "Potency": "inconclusive [inhibitor, partial curve, poor fit]"}
{"smiles": "Cc1cc(C)c(C(=O)/C=C/c2cccc3ccccc23)c(=O)[nH]1", "Potency": "inconclusive [inhibitor, full curve, poor fit]"}
{"smiles": "COc1ccc2c(c1)CCC1C2=NN(/C(C)=C\\C(C)=O)C1c1ccc(F)cc1", "note": "(centres undefined)", "Potency": "inconclusive [inhibitor, partial curve, poor fit]"}
{"smiles": "O=c1oc2ccccc2c(O)c1C=NCc1ccccn1", "Potency": "inconclusive [inhibitor, single point]"}
{"smiles": "O=C(COc1ccccc1[N+](=O)[O-])N1CCCc2ccccc21", "Potency": "inconclusive [inhibitor, single point]"}
{"smiles": "CCOC(=O)C1CCN(C(=O)c2cn(CCOC)c(=O)c3c2c2ccccc2n3C)CC1", "activity change, negative = inhibition": "inactive: 0%"}
{"smiles": "CCOc1cc(CNC(=O)NC2COc3ccccc3C2)cc(OCC)c1OCC", "note": "(centres undefined)", "activity change, negative = inhibition": "inactive: -3.5%"}
{"smiles": "C(=C\\c1ccccc1)/CN1CCN(C(c2ccnc3ccccc23)c2nnnn2C2CCCCC2)CC1", "note": "(centres undefined)", "Potency": "inconclusive [inhibitor, single point]"}
{"smiles": "COCCN=c1scc(-c2cc(OC)c(OC)c(OC)c2)n1/N=C/c1c(C)[nH]c2ccccc12", "Potency": "inconclusive [inhibitor, partial curve]"}
{"smiles": "O=C(CSc1nc2ccc(Cl)cc2[nH]1)Nc1ccc2[nH]c(=O)[nH]c2c1", "activity change, negative = inhibition": "inactive: 31.6%"}
{"smiles": "O=C(NCc1ccco1)C1CC(c2ccc(Cl)c(Cl)c2)=NO1", "note": "(centres undefined)", "Potency": "inconclusive [inhibitor, partial curve]"}
{"smiles": "O=C1CC(c2ccccc2)=Nc2ccccc2N1", "activity change, negative = inhibition": "inactive: 5.98%"}
{"smiles": "COc1ccc(S(=O)(=O)NC2CC(=O)N(c3ccc(C)c(C)c3)C2)cc1C", "note": "(centres undefined)", "Potency": "inconclusive [inhibitor, single point]"}
{"smiles": "CC(C)Cc1ccc(/C=C/C(=O)N2CCCCC2)cc1", "Potency": "inconclusive [inhibitor, single point]"}
{"smiles": "COc1ccc(N2CCN(CC(O)COc3cc(C)cc(C)c3)CC2)cc1", "note": "(centres undefined)", "Potency": "inconclusive [inhibitor, partial curve, poor fit]"}
{"smiles": "C=CCNC(=O)/C(=C\\c1ccc2c(c1)OCO2)NC(=O)c1ccc(Br)cc1", "Potency": "inconclusive [inhibitor, single point]"}
{"smiles": "COCCOC(=O)c1c(C)oc2ccc(OC(=O)c3ccc4c(c3)OCO4)cc12", "Potency": "inconclusive [inhibitor, single point]"}
{"smiles": "CC(C)c1ccc(NC(=O)c2cnc3sc(N4CCCC4)nn3c2=O)cc1", "activity change, negative = inhibition": "inactive: -26.1%"}
{"smiles": "COC(=O)c1ccc(NC(=O)Nc2cccc(F)c2)cc1", "Potency": "inconclusive [inhibitor, single point]"}
{"smiles": "CC(C)CNC(=S)NC1CC2CCCC(C1)N2Cc1cccs1", "note": "(centres undefined)", "activity change, negative = inhibition": "inactive: 0%"}
{"smiles": "COc1ccccc1CN1C[C@@H]2C[C@@H](c3[nH]c4c(C)cccc4c3C)N3CCC[C@@]23C1=O", "Potency": "inconclusive [inhibitor, single point]"}
{"smiles": "CN1CCC(N(C)C(=O)c2cc(-c3ccccc3Cl)nc3ccccc23)CC1", "Potency": "inconclusive [inhibitor, single point]"}
